# The whole screen tested about 310,000 compounds, of which about 2,200 (0.71%) showed an effect of 50% or more. Effects have a minus sign here. The list shows a part of the results.
# Molecular target: human ether-à-go-go-related gene (hERG) potassium channel (human, UniProt Q12809)
# Assay: primary screen, population patch clamp on CHO cells stably expressing hERG
# Sequence of human ether-à-go-go-related gene (hERG) potassium channel (Q12809 whole entry, looked up): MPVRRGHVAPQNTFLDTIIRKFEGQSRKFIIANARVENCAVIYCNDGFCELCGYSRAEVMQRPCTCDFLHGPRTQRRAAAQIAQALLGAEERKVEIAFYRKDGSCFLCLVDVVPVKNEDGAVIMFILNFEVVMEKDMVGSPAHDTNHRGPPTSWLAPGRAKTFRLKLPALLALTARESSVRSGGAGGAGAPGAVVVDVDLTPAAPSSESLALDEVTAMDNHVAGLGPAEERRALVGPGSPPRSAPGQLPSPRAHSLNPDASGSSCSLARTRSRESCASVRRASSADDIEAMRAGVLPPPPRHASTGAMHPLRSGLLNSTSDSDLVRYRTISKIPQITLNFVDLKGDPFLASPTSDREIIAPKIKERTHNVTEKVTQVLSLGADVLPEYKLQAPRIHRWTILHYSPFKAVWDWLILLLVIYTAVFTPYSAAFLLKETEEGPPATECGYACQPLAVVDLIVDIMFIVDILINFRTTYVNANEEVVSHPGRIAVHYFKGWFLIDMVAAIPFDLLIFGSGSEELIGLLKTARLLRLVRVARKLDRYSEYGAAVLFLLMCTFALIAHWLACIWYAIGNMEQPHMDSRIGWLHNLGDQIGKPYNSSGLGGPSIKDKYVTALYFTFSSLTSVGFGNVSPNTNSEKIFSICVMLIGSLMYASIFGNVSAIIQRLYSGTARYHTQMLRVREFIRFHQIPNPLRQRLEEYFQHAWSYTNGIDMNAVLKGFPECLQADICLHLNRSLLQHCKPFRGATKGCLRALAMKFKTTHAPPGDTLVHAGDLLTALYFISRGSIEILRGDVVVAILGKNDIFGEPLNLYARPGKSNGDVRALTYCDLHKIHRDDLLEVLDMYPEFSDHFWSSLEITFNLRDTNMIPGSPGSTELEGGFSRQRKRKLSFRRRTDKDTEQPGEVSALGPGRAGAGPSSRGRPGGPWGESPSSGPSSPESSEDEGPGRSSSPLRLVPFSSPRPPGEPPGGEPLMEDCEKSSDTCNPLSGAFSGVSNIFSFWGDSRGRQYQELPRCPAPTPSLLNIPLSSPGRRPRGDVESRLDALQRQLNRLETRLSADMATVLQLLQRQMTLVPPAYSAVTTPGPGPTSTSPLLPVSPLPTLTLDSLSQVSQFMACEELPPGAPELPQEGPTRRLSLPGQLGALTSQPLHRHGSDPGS
row,SMILES,"hERG current change (%, negative = inhibition) at 1uM [%]"
1,CNC(=S)NNc1nc(N2CCOCC2)nc(N2CCOCC2)n1,6.94
2,COc1ccc(NC(=O)CN2C(=O)C(C)Oc3ccc(C)cc32)cc1 (centres unmarked),6.56
3,O=C(Nc1ccccc1Cl)O/N=C(/c1ccccc1)c1ccccn1,11.8
4,CC(C)=NNC1=NC(C)(C)Cc2ccccc21,11.8
5,COc1ccc(C2C(=O)c3ccccc3C2=O)cc1OC,0.755
6,CS(=O)(=O)N(CC(=O)N1CCCC1)c1cccc(F)c1,18.3
7,O=C(O)c1cc(S(=O)(=O)N(Cc2ccccc2)c2ccc(Cl)cc2)ccc1Cl,13.5
8,Cc1cc(C)nc(SCc2nnc(SCC(=O)O)n2-c2ccccc2)n1,8.79
9,Cl.Fc1ccccc1C(c1nnnn1Cc1ccc2c(c1)OCO2)N1CCN(Cc2ccco2)CC1 (centres unmarked),-14.4
10,CCC/C=C(\CCC)C(NC(=O)Cc1ccccc1)c1ccc(C(=O)OC)cc1 (centres unmarked),-6.38
11,CCSC1=N/C(=C\c2ccc(-c3ccccc3[N+](=O)[O-])o2)C(=O)S1,16.8
12,N/C(=C/C(=O)c1ccccc1O)C(F)(F)F,7.51
13,O=C(CSc1nn(-c2ccc(F)cc2)c(=S)s1)N1CCN(C(=O)c2ccco2)CC1,-64.6
14,O=S1(=O)N=C(N2CCN(Cc3ccccc3)CC2)c2ccccc21,-4.6
15,Cc1ccc(-n2c(-c3ccco3)nc3c(cnn3-c3ccccc3C)c2=O)cc1,14.7
16,CN(C(=O)C1CCN(S(=O)(=O)c2cccc3nonc23)CC1)C1CCCCC1,1.74
17,CCOC(=O)N1CCN(CC(=O)Nc2nnc(C(F)(F)F)s2)CC1,20.1
18,COc1ccc(CN(C(=O)CSc2nnc(-c3c[nH]c4ccccc34)o2)c2ccc(F)cc2)cc1OC,3.73
19,Cc1cc(SCc2ccccc2)nc(=O)[nH]1,11.7

row,SMILES,"hERG current change (%, negative = inhibition) at 1uM [%]"
1,COCCN(C)Cc1nc(C(c2ccccc2)c2ccccc2)no1,7.37
2,C[C@@H]1CN(Cc2nc(Cc3ccccc3F)no2)C[C@H](C)O1,8.68
3,Cc1cnc2cc([N+](=O)[O-])ccc2n1,4.37
4,CCN1CC(CN(C)Cc2cn(-c3cccc(C)c3)nc2-c2cccc(F)c2)CC1=O (centres unmarked),9.85
5,C(=N\n1cnc2ccccc21)/c1cccnc1,3.25
6,CCN(CC)S(=O)(=O)c1ccc(N2CCCCC2)c(NC(=O)/C(C#N)=C/c2ccc(OC)cc2)c1,7.89
7,NC(=O)C1CCN(c2nc(C3CC3)nc3c2nnn3Cc2ccccc2Cl)CC1,11
8,O=C(O)CC(Cc1ccc(Cl)cc1)C(=O)NCC12CC3CC(CC(C3)C1)C2 (centres unmarked),14
9,CCCCCCOC(=O)C(C#N)c1nc2ccccc2nc1N1CCN(CC)CC1 (centres unmarked),12.4
10,O=C(Nc1cccc(Cl)c1)c1nc[nH]c1C(=O)NCc1ccccc1,-0.909
11,O=C(O)CCc1ccc(NCc2cccc(Oc3ccccc3)c2)cc1,19.5
12,CC(C)Oc1cccc(C(=O)Nc2ccc(Br)cc2F)c1,10.7
13,COc1ccc2c(c1)[nH]c1c(=O)n(/N=C/c3ccc(OC)c(COc4ccccn4)c3)cnc12,16.3
14,CCN(CC(=O)Nc1cccc(S(=O)(=O)N2CCCCC2)c1)Cc1ccccc1,-0.224
15,FC(F)(F)c1ccc(N2CCN(c3ncnc4c3nnn4Cc3ccccc3)CC2)nc1,1.18
16,Cc1cccc(NC2SC(=O)N(c3ccccc3)C2=O)c1 (centres unmarked),13.5
17,O=C(Nc1cccc(-n2cnnn2)c1)c1ccc(Cl)cc1Cl,13.5
18,CCN1C(=O)/C(=C2\Sc3ccccc3N2CC)OC1=S,15.2
19,Cc1ccc(N2CCN(S(=O)(=O)c3c(C)nc4scc(C)n4c3=O)CC2)c(C)c1,15.3

row,SMILES,"hERG current change (%, negative = inhibition) at 1uM [%]"
1,COc1cc(SC)ccc1C(=O)OCC(=O)NC1CCCC1,9.49
2,O=C(O)CC(SCC(=O)Nc1ccc(S(=O)(=O)N2CCCC2)cc1)C(=O)O (centres unmarked),9.33
3,CN(C)CCCN(C(=O)c1sc2ccccc2c1Cl)c1nc2c(F)cccc2s1.Cl,8.6
4,CCCCN1C(=O)C(NC(=O)c2cccnc2)(C(F)(F)F)C2=C1CC(C)(C)CC2=O (centres unmarked),3.61
5,N#Cc1c(Nc2ccccc2)sc(C(=O)c2ccccc2)c1N,5.63
6,O=C(O)c1cc(NN=Nc2cccc(S(=O)(=O)O)c2)cc([N+](=O)[O-])c1,5.21
7,CCNC(=O)NC(=O)CSc1nnc(-c2c[nH]c3ccccc23)o1,4.23
8,O=C(Oc1cccccc1=O)c1ccccc1,5.12
9,O=C(COc1cc(Cl)ccc1Cl)Nc1nnc(C2CC2)s1,12.5
10,O=C(CCCc1c[nH]c2ccccc12)N1CCN(c2ccc(N3CCOCC3)nn2)CC1,-0.829
11,Cc1cccc(N2CCN(CC(=O)NCc3ccc(Cl)cc3)CC2)c1C,-3.16
12,COCCCn1c(SCC(=O)NC(C)C)nnc1-c1ccccc1,-0.766
13,Cc1cc(C)c(NC(=O)c2cccc(NC(=O)c3ccco3)c2)c(C)c1,5.91
14,O=C(O)CC1S/C(=N/N=C/c2ccccn2)NC1=O (centres unmarked),15.3
15,Cc1nnsc1C(=O)Nc1ccccc1Cl,2.59
16,COc1cccc(/C=C2/C(=O)NN(c3ccc(C)c(C)c3)C2=O)c1,3.12
17,Cc1cccc(CCNC(=O)C2CCC(=O)N2Cc2ccc(F)cc2)c1 (centres unmarked),-0.0467
18,NC(=S)NN=C(Cc1ccccc1)Cc1ccccc1,8.05
